Laboratory results published in PubChem BioAssay AID588591 (National Center for Advancing Translational Sciences (NCATS), 2011).
The campaign covered roughly 390,000 compounds. About 4,700 (1.2%) were called active. Inconclusive results, whose numbers are uncertain, are shown with a selection of clear calls. Calls follow the shape of the dose curve; as a rule, active = well fitted inhibition curve with a large enough effect; inconclusive = small, poorly fitted or top-dose-only effect, or another doubt; inactive = no such curve, though single readings can be large or run the other way. Potencies beside an inconclusive call are fits to weak or partial responses and may not hold up.

Target: DNA polymerase eta (Homo sapiens) (UniProt Q9Y253)
Assay: qHTS for Inhibitors of Polymerase Eta
Conditions: recombinant Pol eta, fluorescent DNA replication assay; series mostly up to 114 µM; activity change, negative = inhibition: at the top concentration
Summary of the method: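 Pol eta (10 nM) was preincubated with compounds for 15 min at room temperature, after which fluorescent replication substrate (50 nM final) was added to start the reaction. Fluorescence was read kinetically at 0 and 10 min.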
% is scaled to controls: 0 for no effect and ±100 for the full control effect; potency is read from the fitted curve at half-maximal effect; tags tell the direction and shape of the fitted curve.

Sequence of UniProt Q9Y253 (Q9Y253 whole entry, looked up): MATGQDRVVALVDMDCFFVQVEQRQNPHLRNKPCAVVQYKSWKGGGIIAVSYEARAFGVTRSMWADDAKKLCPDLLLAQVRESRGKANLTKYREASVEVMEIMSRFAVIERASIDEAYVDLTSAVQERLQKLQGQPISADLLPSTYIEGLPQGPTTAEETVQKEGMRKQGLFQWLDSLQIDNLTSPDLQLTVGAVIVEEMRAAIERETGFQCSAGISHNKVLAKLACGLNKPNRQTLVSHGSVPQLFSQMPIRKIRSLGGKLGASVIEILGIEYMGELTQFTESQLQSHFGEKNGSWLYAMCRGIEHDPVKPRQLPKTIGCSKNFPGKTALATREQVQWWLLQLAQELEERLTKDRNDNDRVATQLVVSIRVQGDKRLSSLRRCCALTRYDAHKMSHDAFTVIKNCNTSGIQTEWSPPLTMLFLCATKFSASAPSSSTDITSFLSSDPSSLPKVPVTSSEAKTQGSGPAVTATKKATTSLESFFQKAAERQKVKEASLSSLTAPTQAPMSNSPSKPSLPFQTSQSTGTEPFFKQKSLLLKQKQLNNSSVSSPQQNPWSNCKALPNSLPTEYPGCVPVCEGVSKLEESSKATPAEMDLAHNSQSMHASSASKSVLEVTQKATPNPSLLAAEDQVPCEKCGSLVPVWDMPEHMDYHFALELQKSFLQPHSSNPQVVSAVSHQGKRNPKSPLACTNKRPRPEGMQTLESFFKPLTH

| Compound | activity change, negative = inhibition | Potency |
| --- | --- | --- |
| Cc1ccc(CN2CCC(CNC(=O)Nc3cccc(Cl)c3C)C2)cc1 (stereo unspecified) | inactive: -4.82% |  |
| CN(C)CCN(C(=O)c1ccc(S(=O)(=O)N(C)CC2CCCO2)cc1)c1nc2cc3c(cc2s1)OCO3 (stereo unspecified) |  | inconclusive: 70.8 µM [inhibitor, partial curve, poor fit] |
| CCOC(=O)C1=C(CN2CCN(c3ccccc3F)CC2)NC(=O)NC1c1ccc(Cl)cc1 (stereo unspecified) |  | inconclusive: 89.1 µM [inhibitor, partial curve, poor fit] |
| CCOC(=O)c1ccccc1N1C(=O)C2Sc3[nH]c(=O)sc3C(/C=C/c3ccccc3)C2C1=O (stereo unspecified) |  | inconclusive: 17.8 µM [inhibitor, partial curve, poor fit] |
| Cc1ccc(S(=O)(=O)/C(C#N)=C/c2c(N3CCN(C)CC3)nc3c(C)cccn3c2=O)cc1 |  | inconclusive: 25.1 µM [inhibitor, partial curve, poor fit] |
| CCc1ccc2nc3nc(C)cc(C)c3c(N)c2c1 | inactive: 1.74% |  |
| O=C(NCc1cccnc1)c1ccc2c(c1)N(Cc1ccccc1)CCS2 |  | inconclusive: 50.1 µM [inhibitor, partial curve, poor fit] |
| COc1ccc2oc(=O)c(-c3csc(Nc4ccc(O)cc4)n3)cc2c1 |  | inconclusive: 25.1 µM [inhibitor, partial curve, poor fit] |
| O=C(O)C1C2C=CC(C2)C1C(=O)NCc1ccco1 (stereo unspecified) |  | active: 50.1 µM |
| CCOc1ccc(-c2nnc3ccc(SCC(=O)NCc4ccco4)nn23)cc1 |  | inconclusive: 79.4 µM [inhibitor, single point] |
| COc1ccc(C=NN=C2c3ccccc3-c3ccccc32)cc1OC |  | inconclusive: 50.1 µM [inhibitor, partial curve, poor fit] |
| CC1CC1C(=O)OCC(=O)NC(=O)NCc1ccco1 (stereo unspecified) |  | inconclusive: 39.8 µM [inhibitor, single point] |
| CS(=O)(=O)N1Cc2ccccc2CC1C(=O)OCC(=O)Nc1ccc2ccccc2c1 (stereo unspecified) |  | inconclusive: 89.1 µM [inhibitor, partial curve] |
| O=S(=O)(Cc1ccccc1)c1ccccc1-c1nnc(-c2ccccc2)o1 |  | inconclusive: 35.5 µM [inhibitor, partial curve, poor fit] |
| COc1ccc(C2=NN(c3ccc(C(=O)O)cc3)C(c3ccc(OC)c(OC)c3)C2)cc1 (stereo unspecified) |  | inconclusive: 31.6 µM [inhibitor, partial curve, poor fit] |
| Cn1c(C(=O)NCc2ccco2)cc2c(=O)[nH]c3ccccc3c21 | inactive: -0.525% |  |
| O=C(Nc1ncnc2sc3c(c12)CCCCC3)c1ccco1 |  | active: 22.4 µM |
| C=C1CC[C@@H]2[C@](C)(CCC[C@@]2(C)/C=C/[C@@H](O)C(C)(C)O)[C@H]1CC(=O)NCCS(=O)(=O)O |  | active: 17.8 µM |
| COc1ccc2nc(C)cc(N3CCN(c4ccccc4)CC3)c2c1 |  | inconclusive: 79.4 µM [inhibitor, partial curve, poor fit] |
| O=C(O)c1cccc(-c2ccc(/C=N/NC(=O)c3cccnc3)o2)c1 |  | active: 10 µM |
| C/C=C/c1ccc(OCC(=O)O)c(OC)c1 |  | active: 35.5 µM |

| Compound | activity change, negative = inhibition | Potency |
| --- | --- | --- |
| Cc1cc(C)c(NC(=O)Cn2c(=O)c3cccn3c3ccccc32)c(C)c1 |  | inconclusive: 39.8 µM [inhibitor, full curve, poor fit] |
| CCN(CC)c1ccc2cc(C(=O)Nc3ccccn3)c(=O)oc2c1 |  | inconclusive: 22.4 µM [inhibitor, partial curve, poor fit] |
| CC(C)N(C(=O)C1CC(=O)OC12CCCCC2)C(C)C (stereo unspecified) | inactive: -9.77% |  |
| Cc1ccc(-n2c(C)cc(-c3csc(N)n3)c2C)cc1 | inactive: -7.11% |  |
| O=c1cc(-c2ccc(O)cc2)oc2cc(O)cc(O)c12 |  | inconclusive: 31.6 µM [inhibitor, partial curve] |
| Cc1ccc(NC2=C/C(=N\S(=O)(=O)c3cccs3)c3ccccc3C2=O)c(C)c1 | inactive: -11.9% |  |
| O=C(CN1CCCC1)NC(c1ccccc1)c1ccccc1 | inactive: -20.9% |  |
| CCOC(=O)Cc1csc(NC(=O)c2sc3nc4ccc(C)cc4cc3c2N)n1 | inactive: 6.17% |  |
| O=C(Cn1c2ccccc2c(=O)c2cc([N+](=O)[O-])ccc21)Nc1ccccc1Cl |  | inconclusive: 31.6 µM [inhibitor, partial curve, poor fit] |
| O=c1c2c3nc4ccccc4nc3n(-c3ccc4c(c3)OCCO4)c2ncn1C1CCCC1 |  | inconclusive: 3.55 µM [inhibitor, full curve, poor fit] |
| CC(=O)n1cc(/C=N/NC(=O)c2ccc([N+](=O)[O-])cc2)c2ccccc21 |  | inconclusive: 39.8 µM [inhibitor, single point] |
| O=Cc1cn(-c2ccccc2)nc1-c1cc2cc(O)ccc2oc1=O |  | inconclusive: 89.1 µM [inhibitor, partial curve, poor fit] |
| CC1C(=O)C(C)C(c2ccc(O)cc2)NC1c1ccc(O)cc1 (stereo unspecified) |  | inconclusive: 39.8 µM [inhibitor, partial curve, poor fit] |
| CC(=O)COc1cc2c(-c3cc4ccccc4o3)cc(=O)oc2cc1C |  | inconclusive: 25.1 µM [inhibitor, partial curve, poor fit] |
| COc1ccc(Cn2c(-c3ccco3)nc3oc4ccccc4c(=O)c3c2=O)cc1 |  | inconclusive: 28.2 µM [inhibitor, single point] |
| CCOC(=O)c1cc([N+](=O)[O-])cc([N+](=O)[O-])c1Sc1ncnc2nc[nH]c12 |  | inconclusive: 22.4 µM [inhibitor, single point] |
| CCc1cccc(NC(=O)C2CCCN(c3ncnc4onc(-c5ccc(F)cc5)c34)C2)c1 (stereo unspecified) | inactive: -18.7% |  |
| NS(=O)(=O)c1ccc(CNC(=O)/C=C/c2ccco2)cc1 |  | active: 17.8 µM |
| COc1ccc(-n2nc(C(=O)NCC(=O)NCc3ccc(F)cc3)c3ccccc3c2=O)cc1OC |  | inconclusive: 25.1 µM [inhibitor, partial curve] |
| O=C(CCc1nc(-c2cccs2)no1)Nc1cnc2ccccc2c1 |  | inconclusive: 44.7 µM [inhibitor, partial curve, poor fit] |
